Assay [1] deals with T1, SFB-RNF41 (triple-tagged RNF41) (human) (UniProt Q9H4P4).
T1 sequence: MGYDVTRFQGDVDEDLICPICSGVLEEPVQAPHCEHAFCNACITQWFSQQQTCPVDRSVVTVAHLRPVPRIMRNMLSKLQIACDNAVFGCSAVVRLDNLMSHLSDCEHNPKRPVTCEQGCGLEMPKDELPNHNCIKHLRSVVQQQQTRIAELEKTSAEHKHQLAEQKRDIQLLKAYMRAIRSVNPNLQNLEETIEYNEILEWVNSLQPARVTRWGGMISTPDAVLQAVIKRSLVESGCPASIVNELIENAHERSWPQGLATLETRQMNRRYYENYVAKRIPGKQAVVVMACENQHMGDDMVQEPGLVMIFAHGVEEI
As to the kind of experiment: condition: only with exogenous Myc-tagged PHLPP1 expressed; co-IP; as a4, but cells transfected with Myc-tagged PHLPP1 (Fig. 5E).

In assay [2] the target is T1, SFB-RNF41 (triple-tagged RNF41) (human). As to the kind of experiment: co-IP; cells with SFB-RNF41 and vector control; precipitation with streptavidin beads; blot with SGT1 antibody (Fig. 5E); also cells with control or PHLPP1 shRNA, immunoprecipitation 'as indicated' (Fig. 5D).
Assay [3] deals with T2, SFB-SGT1 (triple-tagged SGT1, wild type), in HEK293T (human) (UniProt Q9Y2Z0).
T2 sequence: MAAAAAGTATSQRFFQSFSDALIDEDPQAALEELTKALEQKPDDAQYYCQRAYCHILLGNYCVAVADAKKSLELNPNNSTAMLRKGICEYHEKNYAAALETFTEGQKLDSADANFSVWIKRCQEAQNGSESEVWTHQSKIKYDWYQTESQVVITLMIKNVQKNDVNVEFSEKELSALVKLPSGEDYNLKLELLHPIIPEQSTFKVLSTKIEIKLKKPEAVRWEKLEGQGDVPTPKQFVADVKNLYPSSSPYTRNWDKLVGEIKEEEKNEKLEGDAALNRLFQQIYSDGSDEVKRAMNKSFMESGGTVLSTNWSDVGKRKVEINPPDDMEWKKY
As to the kind of experiment: co-IP; HEK293T co-transfected with SFB-tagged SGT1 (WT or 4A) and a Myc-tagged partner; precipitation with streptavidin (SBP) beads; blot with Myc antibody; NETN buffer (Fig. 1B, 5A, 6E).

The target of assay [4] is T3, SFB-SGT1 4A (S17A/T233A/S249A/S289A), phospho-dead mutant (human) (UniProt Q9Y2Z0).
T3 sequence: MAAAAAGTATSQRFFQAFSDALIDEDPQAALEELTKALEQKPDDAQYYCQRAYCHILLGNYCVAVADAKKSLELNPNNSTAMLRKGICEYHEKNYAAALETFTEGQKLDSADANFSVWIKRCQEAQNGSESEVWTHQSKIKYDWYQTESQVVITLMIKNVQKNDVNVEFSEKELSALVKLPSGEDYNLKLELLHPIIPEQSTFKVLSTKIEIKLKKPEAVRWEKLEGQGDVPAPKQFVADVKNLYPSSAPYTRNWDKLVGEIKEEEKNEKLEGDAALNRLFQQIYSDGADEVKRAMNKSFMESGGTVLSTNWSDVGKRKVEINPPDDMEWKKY
The description is as above.

Assay [5] has as its target T4, SFB-SGT1 (triple-tagged SGT1, wild type), in HeLa (human) (UniProt Q9Y2Z0).
T4 sequence: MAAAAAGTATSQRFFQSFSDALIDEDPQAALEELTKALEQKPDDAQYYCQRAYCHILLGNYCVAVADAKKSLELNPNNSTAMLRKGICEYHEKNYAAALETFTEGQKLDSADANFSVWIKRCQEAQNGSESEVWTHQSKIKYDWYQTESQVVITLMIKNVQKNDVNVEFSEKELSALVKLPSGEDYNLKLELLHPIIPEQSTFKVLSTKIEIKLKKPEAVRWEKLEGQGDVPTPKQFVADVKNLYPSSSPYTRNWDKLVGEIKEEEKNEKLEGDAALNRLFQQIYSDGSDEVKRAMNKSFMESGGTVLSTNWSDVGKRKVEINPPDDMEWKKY
Description: co-IP; HeLa cells expressing SFB-SGT1, nocodazole arrest and release, later stages of mitosis (post-kinetochore assembly); streptavidin beads; blots with PHLPP1 and RNF41 antibodies (Fig. 7A).

In assay [6] the target is T4, SFB-SGT1 (triple-tagged SGT1, wild type), in HeLa (human). As to the kind of experiment: condition: only early stages of mitosis after release from nocodazole; co-IP; HeLa cells expressing SFB-SGT1, nocodazole arrest and release, early stages of mitosis; streptavidin beads; blots with PHLPP1 and RNF41 antibodies (Fig. 7A).

These are yes or no findings as the source states them, for the method shown. In cells and extracts the contact can be indirect. Some entries that bind do so weakly or less than the wild type. Sequences can lack the tags named with a protein.

Experimental findings from article PMC5572923 are described below.

B1: SGT1 (suppressor of G2 allele of SKP1 homolog), endogenous (protein, UniProt Q9Y2Z0 1-365)
chain: MAAAAAGTATSQRFFQSFSDALIDEDPQAALEELTKALEQKPDDAQYYCQRAYCHILLGNYCVAVADAKKSLELNPNNSTAMLRKGICEYHEKNYAAALETFTEGQKLDIETGFHRVGQAGLQLLTSSDPPALDSQSAGITGADANFSVWIKRCQEAQNGSESEVWTHQSKIKYDWYQTESQVVITLMIKNVQKNDVNVEFSEKELSALVKLPSGEDYNLKLELLHPIIPEQSTFKVLSTKIEIKLKKPEAVRWEKLEGQGDVPTPKQFVADVKNLYPSSSPYTRNWDKLVGEIKEEEKNEKLEGDAALNRLFQQIYSDGSDEVKRAMNKSFMESGGTVLSTNWSDVGKRKVEINPPDDMEWKKY
Consider B1, for which the binding result is “no binding” in assay [1] and “binds” in assay [2].

B2: Myc-RNF41 wild type (enzyme, UniProt Q9H4P4 1-317)
chain: MGYDVTRFQGDVDEDLICPICSGVLEEPVQAPHCEHAFCNACITQWFSQQQTCPVDRSVVTVAHLRPVPRIMRNMLSKLQIACDNAVFGCSAVVRLDNLMSHLSDCEHNPKRPVTCEQGCGLEMPKDELPNHNCIKHLRSVVQQQQTRIAELEKTSAEHKHQLAEQKRDIQLLKAYMRAIRSVNPNLQNLEETIEYNEILEWVNSLQPARVTRWGGMISTPDAVLQAVIKRSLVESGCPASIVNELIENAHERSWPQGLATLETRQMNRRYYENYVAKRIPGKQAVVVMACENQHMGDDMVQEPGLVMIFAHGVEEI
Regarding B2, the binding entry in assay [3] was “binds”; in assay [4] it was “no binding”.

B3: RNF41, endogenous in HeLa (enzyme, UniProt Q9H4P4 1-317)
chain: MGYDVTRFQGDVDEDLICPICSGVLEEPVQAPHCEHAFCNACITQWFSQQQTCPVDRSVVTVAHLRPVPRIMRNMLSKLQIACDNAVFGCSAVVRLDNLMSHLSDCEHNPKRPVTCEQGCGLEMPKDELPNHNCIKHLRSVVQQQQTRIAELEKTSAEHKHQLAEQKRDIQLLKAYMRAIRSVNPNLQNLEETIEYNEILEWVNSLQPARVTRWGGMISTPDAVLQAVIKRSLVESGCPASIVNELIENAHERSWPQGLATLETRQMNRRYYENYVAKRIPGKQAVVVMACENQHMGDDMVQEPGLVMIFAHGVEEI
As to B3, the binding entry is on record as “binds” in assay [5] and “no binding” in assay [6].

B4: Myc-RNF41 C34A (catalytically inactive mutant) (enzyme, UniProt Q9H4P4 1-317)
chain: MGYDVTRFQGDVDEDLICPICSGVLEEPVQAPHAEHAFCNACITQWFSQQQTCPVDRSVVTVAHLRPVPRIMRNMLSKLQIACDNAVFGCSAVVRLDNLMSHLSDCEHNPKRPVTCEQGCGLEMPKDELPNHNCIKHLRSVVQQQQTRIAELEKTSAEHKHQLAEQKRDIQLLKAYMRAIRSVNPNLQNLEETIEYNEILEWVNSLQPARVTRWGGMISTPDAVLQAVIKRSLVESGCPASIVNELIENAHERSWPQGLATLETRQMNRRYYENYVAKRIPGKQAVVVMACENQHMGDDMVQEPGLVMIFAHGVEEI
Consider B4, for which the binding result in assay [3] is reported as “binds”.
